± gives the uncertainty stated by the source. The full ranking holds about 9,900 compounds; the median of “viability index relative to DMSO control” is about 1, and the lowest 2% start at about 0.85. Some of the results follow.
These molecules were tested on Plasmodium falciparum NF54 stage V gametocytes (assay: viability index relative to DMSO control (fraction); higher = less gametocyte killing). Details: 2.5 µM, library set: Broad Institute DOS, incubation time: 72 h.
Summary of the method: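 Compound at 2.5 µM was incubated for 72 hr at 37°C under low oxygen with P. falciparum NF54 stage V gametocytes (0.75% gametocytemia, 1.25% hematocrit, 10 µl, serum-free screening medium) in 1,536-well plates. Staining used 3 µl of 2.5 µM MitoTracker Red CMXRos plus 0.13% saponin for one to two hours, and red particles of 20–70 µm2 were counted in one imaged field per well. Each viability index is that count relative to the plate mean of solvent-only wells.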

SMILES	viability index
CN(C)C(=O)c1ccc(-c2ccc([C@@H]3[C@@H](CO)N(C(=O)C4CC4)[C@H]3C#N)cc2)cc1	1.12 ± 0.068
CCCNC(=O)N1[C@H](C#N)[C@@H](c2ccc(C#Cc3cccc(F)c3)cc2)[C@@H]1CO	0.981 ± 0.013
CN(C)C(=O)C[C@@H]1C=C[C@H](NC(=O)c2ccc(F)cc2)[C@@H](CO)O1	1.11 ± 0.097
CCS(=O)(=O)Nc1ccc2c(c1)C(=O)N(C)[C@H]1CC[C@@H](CC(=O)NCc3ccccc3F)O[C@@H]1CO2	1.09 ± 0.07
C[C@@H]1CN([C@@H](C)CO)C(=O)Cc2cc(NC(=O)CCN3CCOCC3)ccc2O[C@H]1CN(C)Cc1ccc(C(=O)O)cc1	0.992 ± 0.027
CO[C@@H]1CN(C)C(=O)c2cc(NS(C)(=O)=O)ccc2OC[C@@H](C)N(Cc2cncnc2)C[C@@H]1C	1.05 ± 0.17
O=C(c1ccc2c(c1)OCO2)N1C[C@H]2[C@@H](c3ccccc31)[C@H](CO)N2Cc1cccnc1	1.01 ± 0.03
O=C(C[C@@H]1CC[C@H]2NC[C@@H](O)COC[C@@H]2O1)NCc1ccc2c(c1)OCO2	1.07 ± 0.015
CCN1CC(=O)N2[C@H](CO)[C@H](c3ccc(Br)cc3)[C@@H]2C1	1.04 ± 0.097
CCNC(=O)C[C@@H]1CC[C@H]2[C@@H](COC[C@@H](O)CN2C(=O)c2ccccn2)O1	1.02 ± 0.045
C[C@@H]1CN([C@@H](C)CO)C(=O)Cc2cc(NS(=O)(=O)c3cn(C)cn3)ccc2O[C@H]1CN(C)Cc1ccc2c(c1)OCO2	1.06 ± 0.067
COCC(=O)N1CC(=O)N2[C@H](CO)[C@@H](c3ccc(C#CC4CC4)cc3)[C@H]2C1	1.04 ± 0.024
O=C1CCCCn2cc(nn2)COC[C@H](Cc2ccccc2)N1	0.986 ± 0.064
CN(C)CC(=O)N[C@H]1CC[C@H](CCNC(=O)C2CCC2)O[C@@H]1CO	1.11 ± 0.071
CN1CCN(C(=O)C[C@H]2CC[C@H]3[C@@H](COC[C@@H](O)CN3Cc3cccc(-c4ccncc4)c3)O2)CC1	1.1 ± 0.026
C/C=C/c1ccc([C@H]2[C@@H]3CN(S(=O)(=O)c4cn(C)cn4)C[C@H]2N3)cc1	1.08 ± 0.018
C[C@H](CO)N1C[C@H](C)[C@H](CN(C)C(=O)NC2CCCCC2)OCc2ccccc2-c2ccccc2C1=O	1.03 ± 0.03
O=C(C[C@@H]1C=C[C@@H](NC(=O)Cc2ccccn2)[C@@H](CO)O1)NCCc1ccncc1	0.977 ± 0.047
COc1ccc2c3c([nH]c2c1)[C@@H](CO)N(C[C@]31CCN(CC2CCCC2)CC1)C(=O)CN1CCOCC1	1.05 ± 0.028

SMILES	viability index
Cc1noc(C)c1S(=O)(=O)N(C)C[C@H]1OCc2ccccc2-c2c(n(C)c3ccccc23)C(=O)N([C@@H](C)CO)C[C@H]1C	0.9973 ± 0.0039
O=C(c1ccccn1)N1C[C@H]2[C@@H](c3ccccc31)[C@@H](CO)N2C(=O)C1CCCCC1	1.09 ± 0.067
COc1ccc(S(=O)(=O)N(C)C[C@H]2Oc3ccc(NC(=O)Cc4cn(C)c5ccccc45)cc3C(=O)N([C@@H](C)CO)C[C@@H]2C)cc1	1.063 ± 0.01
CN1C[C@@H]2[C@H](c3ccccc31)[C@H](CO)N2Cc1ccccc1Cl	1.06 ± 0.051
COc1ccccc1C(=O)Nc1ccc2c(c1)C(=O)N(C)[C@H]1CC[C@H](CC(=O)Nc3cc(F)ccc3F)O[C@@H]1CO2	1.07 ± 0.15
COc1cccc(-c2ccc3n(c2=O)C[C@@H]2[C@@H](CO)[C@H](C(=O)NCC4CC4)[C@H]3N2S(C)(=O)=O)c1	1.039 ± 0.0088
C[C@@H]1CN([C@H](C)CO)C(=O)CCCn2nncc2CO[C@@H]1CN(C)C(=O)CCC(F)(F)F	1.04 ± 0.12
O=C(C1CCC1)N1C[C@@H]2[C@H](c3ccccc31)[C@H](CO)N2Cc1ccccc1	1.05 ± 0.017
C[C@@H]1CCCCO[C@@H](CN(C)C(=O)c2ccncc2)[C@@H](C)CN([C@@H](C)CO)C(=O)c2cc(NC(=O)CCC(F)(F)F)ccc2O1	1.087 ± 0.0063
CN(C)C(=O)C[C@@H]1C=C[C@@H](NC(=O)c2ccc(F)cc2)[C@@H](CO)O1	1.08 ± 0.15
Cc1cccc(S(=O)(=O)N2CC[C@@H]3[C@H]2c2cc(-c4ccccc4F)ccc2N[C@@H]3CO)c1	0.926 ± 0.08
CO[C@H]1CN(C)C(=O)c2cc(NC(=O)C3CCOCC3)ccc2OC[C@H](C)NC[C@H]1C	0.947 ± 0.054
CN1CCN(C(=O)C[C@@H]2CC[C@H]3[C@H](COc4ccc(NC(=O)c5cccs5)cc4C(=O)N3C)O2)CC1	1.09 ± 0.048
O=C(C[C@H]1CC[C@@H](NC(=O)C2CC2)[C@@H](CO)O1)Nc1ccccc1	0.986 ± 0.12
CCC(=O)N1C[C@H](C)[C@@H](OC)CN(C)C(=O)c2cc(NC(=O)Nc3ccc(Cl)cc3)ccc2OC[C@@H]1C	1.04 ± 0.024
C[C@@H]1CN([C@@H](C)CO)C(=O)c2cc(-c3ccncc3)cnc2O[C@H]1CN(C)C(=O)CN1CCOCC1	1.008 ± 0.006
CO[C@H]1CN(C)C(=O)c2ccc(NC(=O)Nc3ccccc3F)cc2OC[C@H](C)N(CC2CC2)C[C@H]1C	0.9705 ± 0.006
COCCNC(=O)C[C@@H]1CC[C@H]2[C@@H](COc3ccc(NS(=O)(=O)c4ccc(Cl)cc4)cc3C(=O)N2C)O1	1.09 ± 0.06

— the supplement of paper PMC4723716
